About 3,600 (1.6%) of roughly 230,000 compounds were called active. The inconclusive results got no clear call from the source; some entries with a clear call stand among them for comparison. Calls come from the whole dose curve; as a rule, active = well fitted inhibition curve with a large enough effect (not every such curve was filed as active); inconclusive = small, poorly fitted or top-dose-only effect, or another doubt; inactive = no such curve, though single readings can be large or run the other way. A potency beside an inconclusive call is a rough fit, not a confirmed value.
What follows are molecules tested against Lysine-specific demethylase 4E (Homo sapiens) (UniProt B2RXH2) (assay: qHTS Assay for Inhibitors of Human Jumonji Domain Containing 2E (JMJD2E)). Settings: JMJD2E catalytic domain, FDH-coupled NADH fluorescence (FDH is formaldehyde dehydrogenase); series mostly up to 57.1 µM; activity change, negative = inhibition: at the top concentration.
Chain of UniProt B2RXH2 (B2RXH2 whole entry, looked up, the tested form may be a part): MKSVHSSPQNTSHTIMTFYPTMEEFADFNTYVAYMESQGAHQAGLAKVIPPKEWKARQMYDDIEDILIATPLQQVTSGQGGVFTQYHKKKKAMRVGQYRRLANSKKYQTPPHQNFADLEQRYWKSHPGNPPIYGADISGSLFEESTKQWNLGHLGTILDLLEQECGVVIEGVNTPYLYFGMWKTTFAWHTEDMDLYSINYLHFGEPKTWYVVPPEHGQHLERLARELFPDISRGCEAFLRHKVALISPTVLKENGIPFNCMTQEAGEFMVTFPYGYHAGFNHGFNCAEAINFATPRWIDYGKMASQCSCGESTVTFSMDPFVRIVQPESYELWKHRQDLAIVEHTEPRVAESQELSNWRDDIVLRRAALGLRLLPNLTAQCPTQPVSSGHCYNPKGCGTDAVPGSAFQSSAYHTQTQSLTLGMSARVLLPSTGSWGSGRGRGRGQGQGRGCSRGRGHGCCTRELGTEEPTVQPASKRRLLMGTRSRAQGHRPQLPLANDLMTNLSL
Note: nearly all actives have a fitted effect of over 50% in size.
Potency is the fitted concentration of half-maximal effect; tags give direction and shape of the fitted curve.
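Throughout, for activity change, negative = inhibition: 0% = wells with enzyme and -100% = buffer wells without enzyme.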

Question: Which “activity change, negative = inhibition” value does the source give for `COc1ccc(NC(=O)NC23CC4(C)CC(C)(CC(C)(C4)C2)C3)cc1OC` here?
Answer: inactive: -3.87%

Question: Which Potency does the source give for `O=C(C[n+]1cc2ccccc2c2ccccc21)c1ccccc1` here?
Answer: inconclusive: 35.5 µM [inhibitor, single point]

Question: With `N#Cc1nccnc1S(=O)(=O)c1cccs1` as the molecule, how does the “activity change, negative = inhibition” value read?
Answer: inactive: -14.9%

Question: With `CC1(C)CC(=O)C(N=Nc2ccc(C(F)(F)F)cc2[N+](=O)[O-])=C(O)C1` as the molecule, how does the Potency read?
Answer: active: 12.6 µM

Question: `O=C(O)c1ccc(Nc2ncnc3c2cnn3Cc2ccccc2)cc1` was tested. Which Potency did it give?
Answer: inconclusive: 31.6 µM [inhibitor, single point]

Question: `OC[C@@H]1CCCN1Cc1cn(-c2ccccc2)nc1-c1ccc2c(c1)OCO2` was tested. Which Potency did it give?
Answer: inconclusive: 25.1 µM [inhibitor, partial curve]

Question: How did the “activity change, negative = inhibition” value turn out when `CCC(=O)N(CCC1(C(C)C)CCOC(C)(C)C1)Cc1ccco1` (centres undefined) was run?
Answer: inactive: -4.96%

Question: Which Potency does the source give for `COc1cccc2cc(C(=O)C3=C(O)C(=O)N(CCN4CCOCC4)C3c3ccc(Cl)cc3)oc12` (centres undefined) here?
Answer: inconclusive: 39.8 µM [inhibitor, single point]

Question: For `Clc1cccc(OCCN2CCNCC2)c1`, which Potency is on record?
Answer: inconclusive: 25.1 µM [inhibitor, single point]

Question: `O=C(OCC(=O)N1CCN(C(=O)c2ccco2)CC1)c1cc(-c2ccc(F)cc2)nc2ccccc12` was tested. Which Potency did it give?
Answer: inconclusive: 28.2 µM [inhibitor, partial curve]

Question: `Cc1nc(N=Nc2cc(S(=O)(=O)O)ccc2S(=O)(=O)O)c(COP(=O)(O)O)c(C=O)c1O` was tested. Which Potency did it give?
Answer: inconclusive: 39.8 µM [inhibitor, single point]

Question: Which Potency does the source give for `NC(=O)c1c(NC(=O)c2cccs2)sc2c1CCCCCC2` here?
Answer: inconclusive: 35.5 µM [inhibitor, single point]

Question: `CN1/C(=C\C(=O)c2oc3ccccc3c2N)C(C)(C)c2ccccc21` was tested. Which Potency did it give?
Answer: inconclusive: 25.1 µM [inhibitor, partial curve]

Question: With `Cc1ncsc1C(=O)N1N=C2/C(=C/c3ccccc3)CCCC2C1c1ccccc1` (centres undefined) as the molecule, how does the Potency read?
Answer: inconclusive: 35.5 µM [inhibitor, single point]

Question: `COc1ccc(CCNC(=O)CC2SC(=NCc3ccccc3OC)NC2=O)cc1` (centres undefined) was tested. Which “activity change, negative = inhibition” value did it give?
Answer: inactive: 1.92%

Question: For `COc1ccc(NC(=O)/C(=C\c2cc(OC)c(OC)cc2[N+](=O)[O-])NC(=O)c2ccccc2)cc1`, which “activity change, negative = inhibition” value is on record?
Answer: inactive: 4.84%

Question: With `O=C1c2nc3ccccn3c2C(=O)N1Cc1ccccc1` as the molecule, how does the Potency read?
Answer: inconclusive: 8.91 µM [inhibitor, single point]

Question: With `CC(C)c1ccc(-c2nnc(N)s2)cc1` as the molecule, how does the Potency read?
Answer: inconclusive: 28.2 µM [inhibitor, single point]

Question: How did the Potency turn out when `COc1ccc(C2/C(=C(\O)c3cccc(OC)c3)C(=O)C(=O)N2c2ccccn2)cc1` (centres undefined) was run?
Answer: inconclusive: 39.8 µM [inhibitor, single point]

Question: Which Potency does the source give for `CCN1CCN(Cc2ccc(OCc3ccccc3)cc2)CC1` here?
Answer: inconclusive: 39.8 µM [inhibitor, single point]

Question: `CCOCCCNc1c2c(nc3cc(-c4ccc(F)cc4)nn13)CCC2` was tested. Which Potency did it give?
Answer: inconclusive: 22.4 µM [inhibitor, partial curve]

Question: For `C=CCNCCCCOc1cccc(Br)c1`, which Potency is on record?
Answer: inconclusive: 39.8 µM [inhibitor, single point]

Question: With `Cc1cc(C)cc(NS(=O)(=O)c2ccc(NC(=S)NC(=O)c3cccs3)cc2)c1` as the molecule, how does the “activity change, negative = inhibition” value read?
Answer: inactive: 1.04%

Question: `CC(O)Cn1ccccc1=N` (centres undefined) was tested. Which Potency did it give?
Answer: inconclusive: 25.1 µM [inhibitor, single point]

Question: For `Cc1ccc2cc(CCNC(=O)C(C)C)c(=O)[nH]c2c1`, which Potency is on record?
Answer: inconclusive: 39.8 µM [inhibitor, single point]

Question: Which Potency does the source give for `CCc1nc2sc3c(=O)[nH]cnc3c2c2c1CSC(C)(C)C2` here?
Answer: inconclusive: 35.5 µM [inhibitor, single point]

Question: With `O=C1c2ccccc2-c2onc3ccc(NCc4ccco4)c1c23` as the molecule, how does the “activity change, negative = inhibition” value read?
Answer: inactive: -8.79%

Question: How did the Potency turn out when `CCn1c(-c2ccsc2)nc2c1c(=O)[nH]c(=O)n2Cc1ccccc1` was run?
Answer: inconclusive: 35.5 µM [inhibitor, single point]

Question: `COc1ccc(C2C3=C(CC(C)(C)CC3=O)Nc3c2c(=O)[nH]c(=O)n3Cc2ccccc2)cc1` (centres undefined) was tested. Which Potency did it give?
Answer: inconclusive: 31.6 µM [inhibitor, partial curve]

Question: How did the “activity change, negative = inhibition” value turn out when `O=C(/C=C/c1ccc(Br)cc1)c1ccc(NC2=NCCCS2)cc1` was run?
Answer: inactive: 6.26%

Question: Which “activity change, negative = inhibition” value does the source give for `C=CCn1c(SCC(=O)C(C)(C)C)nnc1-c1cccs1` here?
Answer: inactive: -2.42%

Question: With `N/C(=N\OC(=O)c1cccc2ccccc12)c1cccc([N+](=O)[O-])c1` as the molecule, how does the “activity change, negative = inhibition” value read?
Answer: inactive: -2.11%

Question: For `CN(C)C(=S)Nn1c(-c2ccccc2)nc2ccccc2c1=O`, which “activity change, negative = inhibition” value is on record?
Answer: inactive: -2.58%

Question: For `CCOc1ccccc1N1CC(O)=C(c2nc3ccccc3s2)C1=N`, which Potency is on record?
Answer: inconclusive: 28.2 µM [inhibitor, single point]

Question: How did the Potency turn out when `COCc1cc(C)nc2sc3c(=O)oc(C)nc3c12` was run?
Answer: inconclusive: 31.6 µM [inhibitor, partial curve]

Question: With `CC(Nc1nc(N2CCN(CCO)CC2)nc2ccccc12)c1ccccc1` (centres undefined) as the molecule, how does the Potency read?
Answer: inconclusive: 28.2 µM [inhibitor, partial curve]

Question: With `C#CCOCCOCCOCCNc1nc(N2CCN(C(=O)[C@H](Cc3cc4ccccc4[nH]3)n3cc([C@@H](N)Cc4ccc(O)cc4)nn3)CC2)nc(N2CCN(C(=O)[C@H](Cc3cc4ccccc4[nH]3)n3cc([C@@H](N)CC(C)C)nn3)CC2)n1` as the molecule, how does the Potency read?
Answer: inconclusive: 22.4 µM [inhibitor, single point]

Question: How did the Potency turn out when `CCCCc1nc2ccccc2c(NC(=O)CN(CC)CC)c1CCC` was run?
Answer: inconclusive: 31.6 µM [inhibitor, single point]

Question: How did the “activity change, negative = inhibition” value turn out when `CC(=O)N(c1cccc(Cl)c1)c1nc(C)cc(C)c1C#N` was run?
Answer: inactive: 4.21%

Question: With `O=C(Cc1ccccc1)Nc1nnc(-c2cccs2)s1` as the molecule, how does the Potency read?
Answer: inconclusive: 31.6 µM [inhibitor, partial curve]

Question: Which “activity change, negative = inhibition” value does the source give for `CN1CCN(C(c2cccnc2)c2ccc3cccnc3c2O)CC1` (centres undefined) here?
Answer: inactive: 2.84%

Question: Which Potency does the source give for `N#Cc1ccc2ccn(CC(=O)NCc3ccco3)c2c1` here?
Answer: inconclusive: 39.8 µM [inhibitor, single point]

Question: For `COc1ccc(-c2nn(-c3ccccc3)cc2/C=C/C(=O)OCC(=O)Nc2ccc(C#N)cc2)cc1`, which Potency is on record?
Answer: inconclusive: 31.6 µM [inhibitor, partial curve]

Question: With `Cc1nc(CS(=O)(=O)c2ccc(Cl)cc2)cc(Sc2ccc(Cl)cc2)n1` as the molecule, how does the “activity change, negative = inhibition” value read?
Answer: inactive: 2.23%

Question: For `Cc1cc(C)c2c(=O)[nH]c(SCC(=O)N3CCOCC3)nc2n1`, which Potency is on record?
Answer: inconclusive: 25.1 µM [inhibitor, partial curve]

Question: Which Potency does the source give for `COc1ccc(NC2c3ncccc3C(=O)N2Cc2ccccc2)c(OC)c1` (centres undefined) here?
Answer: inconclusive: 35.5 µM [inhibitor, single point]

Question: For `CCOc1ccc(N/C(=N/c2nc(C)cc(C)n2)NC(C)=O)cc1`, which “activity change, negative = inhibition” value is on record?
Answer: inactive: -3.42%

Question: For `COc1ccc(N2CC(C)Cn3c2nc2c3c(=O)n(Cc3ccc(C)cc3)c(=O)n2C)c(OC)c1` (centres undefined), which Potency is on record?
Answer: inconclusive: 35.5 µM [inhibitor, single point]

Question: Which “activity change, negative = inhibition” value does the source give for `O=C1CC(Sc2ccc(Cl)cc2)C(=O)N1c1ccc2c(c1)OCCO2` (centres undefined) here?
Answer: inactive: 2.88%

Question: Which Potency does the source give for `CCC1C(=O)NCCN1Cc1nc(-c2ccc(C)s2)oc1C` (centres undefined) here?
Answer: inconclusive: 22.4 µM [inhibitor, partial curve]

Question: Which “activity change, negative = inhibition” value does the source give for `CC(C)NC(=O)c1cc2cc([N+](=O)[O-])ccc2s1` here?
Answer: inactive: -4.07%

Question: For `O=C(c1cccs1)N1CCN=C1SCc1ccccc1F`, which “activity change, negative = inhibition” value is on record?
Answer: inactive: 3.3%

Question: Which Potency does the source give for `COc1ccc(OCc2nc3c4c(ncn3n2)-c2ccccc2CC42CCCC2)cc1` here?
Answer: inconclusive: 25.1 µM [inhibitor, partial curve]

Question: For `Cc1cc2c(c(N3CCOCC3)n1)C(=O)OC2`, which Potency is on record?
Answer: inconclusive: 31.6 µM [inhibitor, partial curve]

Question: Which Potency does the source give for `C=CCNC(=O)/C(C#N)=C/c1c(N(Cc2ccccc2)Cc2ccccc2)nc2ccccn2c1=O` here?
Answer: inconclusive: 11.2 µM [inhibitor, partial curve]

Question: `O=C(COC(=O)c1ccccc1NS(=O)(=O)c1cccs1)NCC12CC3CC(CC(C3)C1)C2` was tested. Which Potency did it give?
Answer: inconclusive: 28.2 µM [inhibitor, single point]

Question: For `C=CCn1c(COc2cccc3cccnc23)nnc1SCC(=O)O`, which Potency is on record?
Answer: inconclusive: 39.8 µM [inhibitor, single point]

Question: Which Potency does the source give for `CCC(=O)Nc1ccccc1C(=O)OCC(=O)c1ccc2ccccc2c1` here?
Answer: inconclusive: 35.5 µM [inhibitor, single point]

Question: For `CC(C)OCCCNC(=O)C(NS(=O)(=O)c1ccc2c(c1)c(=O)n(C)c(=O)n2C)c1ccccc1` (centres undefined), which Potency is on record?
Answer: inconclusive: 28.2 µM [inhibitor, single point]

Question: Which Potency does the source give for `Cc1ccc2[nH]c(=O)c(Cc3ccccc3)c(O)c2c1` here?
Answer: inconclusive: 28.2 µM [inhibitor, partial curve]

Question: Which Potency does the source give for `CCCCN1C=C(C(=O)OC)C(c2ccccc2C(F)(F)F)C(C(=O)OC)=C1` here?
Answer: inconclusive: 3.55 µM [inhibitor, full curve]

Question: With `C=CCN=c1scc(-c2ccccc2)n1/N=C/c1ccccn1` as the molecule, how does the “activity change, negative = inhibition” value read?
Answer: inactive: 5.76%

Question: How did the Potency turn out when `CCN(CCCNC(=O)Cn1ncc2c(=O)oc3ccccc3c21)c1cccc(C)c1` was run?
Answer: inconclusive: 35.5 µM [inhibitor, single point]

Question: Which Potency does the source give for `COc1cc(O)c2c(=O)cc(-c3ccc(OC)c(-c4c(O)cc(O)c5c(=O)cc(-c6ccc(O)cc6)oc45)c3)oc2c1` here?
Answer: inconclusive: 14.1 µM [inhibitor, partial curve]

Question: How did the “activity change, negative = inhibition” value turn out when `Oc1c(Br)cc(C2N=C(c3ccccc3Cl)NO2)cc1Br` (centres undefined) was run?
Answer: inactive: -3.7%

Question: With `COc1cccc(NC(=O)Cc2c(O)c3ccccc3[nH]c2=O)c1` as the molecule, how does the Potency read?
Answer: inconclusive: 31.6 µM [inhibitor, partial curve]

Question: How did the Potency turn out when `CCOC(=O)CSc1nnc(-c2ccc3ncccc3c2)n1C` was run?
Answer: inconclusive: 31.6 µM [inhibitor, single point]

Question: For `O=C(O)c1cc(Br)ccn1`, which Potency is on record?
Answer: active: 17.8 µM

Question: Which Potency does the source give for `CCS(=O)(=O)N1CCN(Cc2c[nH]c3ccccc23)CC1` here?
Answer: inconclusive: 22.4 µM [inhibitor, single point]

From PubChem BioAssay AID2147 (National Center for Advancing Translational Sciences (NCATS), 2009)
